In all, about 220,000 compounds went through this assay and about 16,000 (7.3%) were called active. Inconclusive results, whose numbers are uncertain, are shown with a selection of clear calls. Calls come from the whole dose curve; as a rule, active = well fitted inhibition curve with a large enough effect (not every such curve was filed as active); inconclusive = small, poorly fitted or top-dose-only effect, or another doubt; inactive = no such curve, though single readings can be large or run the other way. No potency is given beside an inconclusive call; the fits are too rough.
molecular target: Aldehyde dehydrogenase 1A1 (Homo sapiens) (UniProt P00352); assay: qHTS Assay for Inhibitors of Aldehyde Dehydrogenase 1 (ALDH1A1); conditions: Purified ALDH1A1, NADH fluorescence, propionaldehyde substrate; series mostly up to 75.3 µM
Potency is the fitted concentration of half-maximal effect; tags give direction and shape of the fitted curve.

Sequence of UniProt P00352 (P00352 whole entry, looked up): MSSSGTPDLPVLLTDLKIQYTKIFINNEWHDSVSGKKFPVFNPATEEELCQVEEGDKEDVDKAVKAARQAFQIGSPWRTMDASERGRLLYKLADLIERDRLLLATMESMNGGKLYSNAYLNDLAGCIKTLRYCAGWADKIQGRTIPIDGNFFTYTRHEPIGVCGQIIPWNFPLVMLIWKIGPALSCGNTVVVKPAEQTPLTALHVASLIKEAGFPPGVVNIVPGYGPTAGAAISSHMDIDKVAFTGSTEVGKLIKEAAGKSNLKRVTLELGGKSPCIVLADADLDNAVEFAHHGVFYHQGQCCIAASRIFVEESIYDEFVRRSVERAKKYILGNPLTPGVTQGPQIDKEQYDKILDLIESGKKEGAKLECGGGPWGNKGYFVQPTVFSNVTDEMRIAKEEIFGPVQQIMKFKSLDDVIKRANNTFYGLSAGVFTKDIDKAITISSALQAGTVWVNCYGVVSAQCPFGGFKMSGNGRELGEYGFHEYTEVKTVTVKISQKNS

Row | SMILES | Potency
1 | CC(=O)Nc1ccc(-c2cc(C(=O)O)c3ccc(C)cc3n2)cc1 | inconclusive [inhibitor, partial curve]
2 | COc1ccc2cc3c(N)nn(C(=O)Cc4ccccc4OC)c3nc2c1 | inconclusive [inhibitor, partial curve]
3 | COc1ccc(-c2cc(C(=O)N3CCCCC3)no2)cc1OC | inactive
4 | CN(C)CCCNC(=O)c1ccc(-c2ccccc2)cc1 | inactive
5 | CCOc1nnnc2c1sc1nc(N3CCOCC3)c3c(c12)CCCC3 | inactive
6 | O=[N+]([O-])c1cc(S(=O)(=O)N2CCOCC2)ccc1N1CCCC1 | inconclusive [inhibitor, partial curve]
7 | CCOc1ccc2[nH]c(=O)c(C(c3nnnn3CC3CCCO3)N3CCc4ccccc4C3)cc2c1 (configuration not stated) | inconclusive [inhibitor, single point]
8 | O=C(Nc1ccc(N2CCN(c3ncccc3C(F)(F)F)CC2)nc1)c1cccs1 | inconclusive [inhibitor, partial curve, poor fit]
9 | O=C(CN1CCN(c2ccccc2Cl)CC1)NC1CCCc2ccccc21 (configuration not stated) | inconclusive [inhibitor, single point]
10 | CCN(CC)C(=O)c1cn(CC)c(=O)c2cc(OC)c(OC)cc12 | inconclusive [inhibitor, single point]
11 | N#C/C(=C\c1ccccc1)C(=O)OCC(=O)N1CCCC1 | inconclusive [inhibitor, partial curve, poor fit]
12 | Cc1nc(C(=O)N2CCc3c([nH]c4ccccc34)C2c2cc(F)ccc2F)cs1 (configuration not stated) | inconclusive [inhibitor, single point]
13 | O=C(Cn1cnc2ccccc21)Nc1ccc(F)c(F)c1 | inactive
14 | Cc1c(=O)n(OCc2ccccc2)c2ccccc2[n+]1[O-] | inconclusive [inhibitor, single point]
15 | O=C(N/N=C/c1ccco1)c1cccc([N+](=O)[O-])c1 | inactive
16 | O=C(COC(=O)c1ccc(N2CCOCC2)c([N+](=O)[O-])c1)Nc1ccc2c(c1)OCO2 | inconclusive [inhibitor, single point]
17 | COc1ccc(C2CC(C(F)(F)F)n3nc(C(=O)NCc4c(C)nn(C)c4C)c(Cl)c3N2)cc1 (configuration not stated) | inactive
18 | CCC(C)NC(=O)c1ccc(C2SCC(=O)N2Cc2ccccc2)cc1 (configuration not stated) | inconclusive [inhibitor, single point]
19 | Cc1ccc(N2C(=O)CC(N3CCN/C3=C3\CC/C(=C\c4ccccc4)C3=O)C2=O)cc1 (configuration not stated) | inactive
20 | C=CCc1cc(Cl)ccc1OCCOCCNC(C)(C)C | inconclusive [inhibitor, single point]
21 | NNC(=O)c1cc(-c2ccc(N)cc2)nc2ccc(Br)cc12 | inconclusive [inhibitor, single point]
22 | O=C(O)/C=C/c1ccc(O)c(O)c1 | inconclusive [inhibitor, single point]
23 | O=[N+]([O-])c1ccc(S(=O)(=O)Cc2ccccc2)c2nonc12 | active: 1.78 µM
24 | N#Cc1c(NC(=S)NC(=O)c2ccccc2)sc2c1CCC2 | active: 14.1 µM

Row | SMILES | Potency
25 | CCN(CC)c1ccc(NC(=O)Cn2ncc3c(C)n(Cc4ccccc4F)c(C)c3c2=O)c(C)c1 | inconclusive [inhibitor, single point]
26 | O=C(CSc1ncnc2ccccc12)NCCc1ccccc1 | inactive
27 | C/C(=N\NC(=O)c1ccc2c(c1)OCO2)c1ccc(C(=O)O)s1 | inconclusive [inhibitor, single point]
28 | Cc1ccc2nc(Cn3cc(C(F)(F)F)ccc3=O)cc(=O)n2c1 | inconclusive [inhibitor, partial curve]
29 | Cc1cc(C)c(NC(=O)/C(=C/c2ccccc2)c2ccccc2)c(C)c1 | inactive
30 | COc1ccccc1-c1cncnc1NCCc1cnc[nH]1 | inactive
31 | CC1CCC/C(=N\Nc2ccc(Cl)c(C(=O)O)c2)C1 (configuration not stated) | inconclusive [inhibitor, single point]
32 | CCSc1ncc(/C=N/Nc2ccccc2)n1C | inconclusive [inhibitor, single point]
33 | O=C1OCCN1C(=O)[C@H]1[C@H](c2ccc(F)cc2)C(c2cccc(Cl)c2)=NN1c1ccccc1 | inconclusive [inhibitor, single point]
34 | COc1ccc2c(CC(=O)Nc3ccc(OC)c(S(=O)(=O)N4CCOCC4)c3)coc2c1 | inactive
35 | COc1ccc(OC)c(CNC(=O)C2CCCN(c3nc4ccccc4o3)C2)c1 (configuration not stated) | inconclusive [inhibitor, partial curve, poor fit]
36 | c1ccc(Nc2nc(-c3ccoc3)nc3ccccc23)cc1 | inconclusive [inhibitor, single point]
37 | Cc1ccc(S(=O)(=O)N/N=C\c2ccc([N+](=O)[O-])o2)cc1 | inconclusive [inhibitor, single point]
38 | COC(=O)COC(=O)c1ccc(-n2nnnc2SC)cc1 | inconclusive [inhibitor, partial curve]
39 | COc1cccc(-n2c(Cn3nc(C(F)(F)F)cc3C)n[nH]c2=S)c1 | inactive
40 | COc1cc2nc(N(C)CCCNC(=O)C3CCCO3)nc(N)c2cc1OC (configuration not stated) | inconclusive [inhibitor, single point]
41 | CSc1oc(-c2ccco2)nc1S(=O)(=O)c1ccc(F)cc1 | inconclusive [inhibitor, single point]
42 | COc1ccc(NC(=O)CSc2ncn[nH]2)c([N+](=O)[O-])c1 | inconclusive [inhibitor, single point]
43 | COc1ccc(-c2noc(CN3CCOCC3)n2)cc1OC | active: 22.4 µM
44 | Cc1ccc(-c2nc3cc(NC(=O)C(C)C)ccc3o2)cc1C | inconclusive [inhibitor, partial curve]
45 | CSc1cccc(NC(=S)N(CCCN2CCCC2)Cc2cccn2Cc2ccc(Cl)cc2)c1 | inconclusive [inhibitor, single point]
46 | Cc1ccc(NCN2C(=O)C3CC=CCC3C2=O)cc1 (configuration not stated) | inconclusive [inhibitor, single point]
47 | COc1ccc(/C=C(\NC(=O)c2ccc(C)cc2)C(=O)Nc2c(C)n(C)n(-c3ccccc3)c2=O)cc1 | inactive
48 | CCCNC(=O)COC(=O)/C=C/c1ccc(C)o1 | inconclusive [inhibitor, single point]

Row | SMILES | Potency
49 | COc1ccc(C)cc1NC(=O)C(Sc1nncn1C)c1ccccc1 (configuration not stated) | inactive
50 | CCN(CC)S(=O)(=O)c1ccc(/C=C/C(=O)Nc2ccc(Br)cc2F)cc1 | inconclusive [inhibitor, partial curve]
51 | COC(=O)c1c(O)cc(C(C)(C)C)n(-c2ccccc2)c1=O | inactive
52 | O=c1[nH]c(CSc2ncnc3sc(-c4ccccc4)cc23)nc2ccccc12 | inconclusive [inhibitor, partial curve]
53 | CC(C)CNC(=O)[C@H](Cc1ccccc1)NC(=O)c1ccco1 | active: 39.8 µM
54 | COc1ccc(CN2C(=O)CN=C2Nc2cc(C)ccc2C)cc1 | inconclusive [inhibitor, single point]
55 | CCc1c(C(=O)N/N=C/c2cn[nH]c2-c2ccc(F)cc2)csc1C | inconclusive [inhibitor, partial curve]
56 | COc1ccc(C=O)cc1Cn1cnc2c(cnn2C)c1=O | inconclusive [inhibitor, single point]
57 | CCOC(=O)c1c(N)nn(C(=O)c2ccccc2)c1-c1ccccc1 | inactive
58 | Cc1cc(C)cc(NC(=O)C2CCCN(c3nccc(C)n3)C2)c1 (configuration not stated) | inconclusive [inhibitor, single point]
59 | Cc1c(CCC(=O)O)c(=O)n2c([nH]c3ccccc32)c1C#N | inconclusive [inhibitor, partial curve]
60 | CC(=O)Nc1sc2c(c1C(=O)N1CCOCC1)CCCCC2 | inconclusive [inhibitor, single point]
61 | O=C1OCCN1C(=O)[C@H]1[C@H](c2ccc(Cl)cc2)C(c2ccccc2)=NN1c1ccccc1 | inconclusive [inhibitor, single point]
62 | Nn1c(-c2cccs2)nc2sc3c(c2c1=O)CCCC3 | inconclusive [inhibitor, partial curve]
63 | O=C(Nc1ccccc1)c1ccc(=O)n(Cc2cccc(Cl)c2)c1 | inconclusive [inhibitor, single point]
64 | Cc1ccccc1NC(=O)CSC1=C(C#N)C(c2ccsc2)CC(=O)N1 (configuration not stated) | inconclusive [inhibitor, single point]
65 | CCN(CC)CCOc1c(C)cccc1Cl | inactive
66 | O=c1oc2ccccc2c(O)c1C=Nc1cccnc1 | inactive
67 | CCOc1ccc2oc(C(=O)OCC(=O)NC3CC3)c(C)c2c1 | inconclusive [inhibitor, single point]
68 | C=CCNC(=O)c1cc2cccc(OC)c2oc1=O | inactive
69 | CCCCCC1=C2CNC(CCC)(C(=O)OC)C=C2C(C)C1=O (configuration not stated) | active: 28.2 µM
70 | CC(=O)NC(C)C(=O)OCC(=O)Nc1ccc(Br)cc1 (configuration not stated) | inconclusive [inhibitor, single point]
71 | N#CC1=C(SCC(=O)NCc2ccccc2)NC(=O)CC1c1ccco1 (configuration not stated) | active: 8.91 µM
72 | O=C(C1CCCN(S(=O)(=O)Cc2ccccc2)C1)N1CCC(Cc2ccccc2)CC1 (configuration not stated) | inconclusive [inhibitor, partial curve]
